# Laboratory results from PubChem BioAssay AID485281 (National Center for Advancing Translational Sciences (NCATS), 2010).
# The whole screen tested about 350,000 compounds, of which about 260 (0.074%) were called active. Inconclusive means that the source gave no clear call. Such entries were picked first, then a sample of the others. Calls follow the shape of the dose curve; as a rule, active = well fitted inhibition curve with a large enough effect; inconclusive = small, poorly fitted or top-dose-only effect; inactive = no such curve, though single readings can be large or run the other way. Potencies of inconclusive entries are doubtful fits and often do not repeat.
# Biological target: Ferritin light chain (Equus caballus) (UniProt P02791)
# Sequence of UniProt P02791 (P02791 whole entry, looked up): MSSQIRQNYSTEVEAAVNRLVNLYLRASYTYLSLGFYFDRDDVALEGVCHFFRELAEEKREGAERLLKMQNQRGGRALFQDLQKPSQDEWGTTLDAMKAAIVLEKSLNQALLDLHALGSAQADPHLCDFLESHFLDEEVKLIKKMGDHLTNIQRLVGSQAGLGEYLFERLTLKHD
# Test: qHTS Assay for Identification of Novel General Anesthetics; also: nearly all actives have a fitted effect of over 20% in size
# Details: apoferritin/1-aminoanthracene competitive binding, fluorescence; activity change, negative = displacement: at 77.5 µM (top of the series)
# Method in brief: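 Apoferritin-based anesthetic binding model; compound displacement of fluorescent 1-AMA measured as endpoint fluorescence after 10 minutes at room temperature, scaled to free-ligand and complex controls.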
# % is scaled to controls: 0 for no effect and ±100 for the full control effect; potency is read from the fitted curve at half-maximal effect; tags tell the direction and shape of the fitted curve.
SMILES,Potency,"activity change, negative = displacement"
Cc1ccc(Cl)cc1Nc1nc(-c2cccnc2)cs1,"inconclusive: 39.8 µM [inhibitor, partial curve, poor fit]",–
COc1ccc(CN2CCC(Oc3ccc(C(=O)N4CCCCC4)cc3)CC2)cc1C,inactive,–
CC(C)OC(=O)c1cccc(C(=O)Oc2ccc(Br)cc2)n1,"inconclusive: 25.1 µM [inhibitor, partial curve]",–
COc1cc(C(C)=O)ccc1OCC(O)CN1CCN(c2ccc(C)cc2C)CC1 (centres undefined),"inconclusive: 31.6 µM [inhibitor, single point]",–
CC(C)CCOc1cccc(OCC(=O)N(C)C2CCS(=O)(=O)C2)c1 (centres undefined),"inconclusive: 31.6 µM [inhibitor, single point]",–
Cc1ccccc1NC(=O)C(NS(=O)(=O)c1ccc2c(c1)c(=O)n(C)c(=O)n2C)c1ccccc1 (centres undefined),"inconclusive: 28.2 µM [inhibitor, partial curve, poor fit]",–
O=C1C2C3C=CC(CC3)C2C(=O)N1c1ccc(Cl)cc1Cl (centres undefined),"inconclusive: 8.91 µM [inhibitor, partial curve]",–
COc1ccc(C2CC2/C(C)=N/OC(=O)c2cccs2)cc1 (centres undefined),"inconclusive: 11.2 µM [inhibitor, partial curve]",–
O=C(NCc1ccc2c(c1)OCO2)c1cccc(S(=O)(=O)N2CCCC2)c1,"inconclusive: 22.4 µM [inhibitor, partial curve]",–
CCOc1cccc2sc(NC(=O)c3ccc(S(=O)(=O)N4CCCCC4)cc3)nc12,inactive,–
CCCN1C/C(=C/c2cccc([N+](=O)[O-])c2)C(=O)/C(=C/c2cccc([N+](=O)[O-])c2)C1,"inconclusive: 17.8 µM [inhibitor, partial curve]",–
Cc1ccc(COn2c(-c3ccc(Cl)cc3Cl)nc3ncccc32)cc1,"inconclusive: 39.8 µM [inhibitor, partial curve]",–
NC(=S)n1[nH]c(-c2ccc([N+](=O)[O-])cc2)c(N=Nc2ccc(O)cc2)c1=O,inactive,–
O=C(Cn1nnc(-c2ccc(Cl)cc2)n1)NC1CC2CCC1C2 (centres undefined),"inconclusive: 8.91 µM [inhibitor, partial curve]",–
COc1ccc(CN2CCCC(C(=O)c3cccc(C(F)(F)F)c3)C2)cc1O (centres undefined),"inconclusive: 31.6 µM [inhibitor, partial curve]",–
Cc1nnsc1C(=O)NC(C)C12CC3CC(CC(C3)C1)C2 (centres undefined),"inconclusive: 22.4 µM [inhibitor, partial curve]",–
CC1CCN(S(=O)(=O)c2ccc3c(ccc(=O)n3CC(=O)NCc3ccccc3)c2)CC1,"inconclusive: 11.2 µM [inhibitor, partial curve]",–
Cc1ccc(CCNC(=O)c2oc(=O)c3ccccc3c2-c2ccc(C)cc2)cc1,"inconclusive: 15.8 µM [inhibitor, partial curve]",–
Cc1nn(-c2ccccn2)c2c1C(c1ccsc1)C1=C(CCCC1=O)N2 (centres undefined),inactive,–
Cn1cc(S(=O)(=O)NC2CCCCCC2)c(=O)n(C)c1=O,"inconclusive: 35.5 µM [inhibitor, single point]",–
CCC(Cc1ccccc1)NS(=O)(=O)c1ccc2c(c1)NC(=O)C(C)S2 (centres undefined),"inconclusive: 44.7 µM [inhibitor, partial curve, poor fit]",–
CCCCCOc1ccc(NC(=O)C(=O)NCCCn2ccnc2)cc1,"inconclusive: 5.62 µM [inhibitor, full curve]",–

SMILES,Potency,"activity change, negative = displacement"
COc1ccc(C)cc1NC(=O)C1CCCN1S(=O)(=O)c1ccc2c(c1)CCC(=O)N2 (centres undefined),"inconclusive: 35.5 µM [inhibitor, single point]",–
C=C(C)C1Cc2c(C)nn(-c3nc(C)cc(C)n3)c2C1 (centres undefined),"inconclusive: 44.7 µM [inhibitor, partial curve]",–
Cc1ccc(S(=O)(=O)/N=S(\C)CC2CC2(Cl)Cl)cc1 (centres undefined),"inconclusive: 50.1 µM [inhibitor, single point]",–
CN1CCCN(C(=O)CNC(=O)Cc2ccccc2)CC1,inactive,–
C/C(=N\NC(=S)Nc1ccc(F)cc1)C1CC1,"inconclusive: 50.1 µM [inhibitor, single point]",–
CCOC(=O)CCCNC(=O)CCCNC(=O)C(c1ccccc1)c1ccccc1,"inconclusive: 22.4 µM [inhibitor, partial curve]",–
CC(C)CCNC(=O)c1c[nH]c2ccc(S(=O)(=O)Nc3cccc(C(F)(F)F)c3)cc2c1=O,"inconclusive: 56.2 µM [inhibitor, single point]",–
Cc1ccc(-c2noc(-c3ccc(NC4CCCC4)c([N+](=O)[O-])c3)n2)cc1,"inconclusive: 20 µM [inhibitor, partial curve]",–
COC(=O)c1c(NC(=O)c2cccc(N3C(=O)CCC3=O)c2)sc2c1CCN(C(C)=O)C2,"inconclusive: 15.8 µM [inhibitor, partial curve]",–
COc1ccc(S(=O)(=O)Nc2cc(Cl)ccc2OC)cc1,"inconclusive: 31.6 µM [inhibitor, single point]",–
COc1ccc(CNCCc2ccc(Cl)cc2)cc1OCc1ccccc1,inactive,–
CC1CCCN(C(=O)Cc2cccc3ccccc23)C1 (centres undefined),"inconclusive: 7.08 µM [inhibitor, partial curve]",–
CCOc1ccc2[nH]c(=O)c(CN(CCO)C(=O)c3ccc(Br)cc3)cc2c1,inactive,–
Cc1nc(N2CCOCC2)c2nc(-c3ccccc3)n(CC3CCN(C)CC3)c2n1,inactive,–
O=C(c1ccccc1F)N1CCN(c2ccc([N+](=O)[O-])c(NCC3CCCO3)c2)CC1 (centres undefined),"inconclusive: 31.6 µM [inhibitor, partial curve]",–
O=C(Nc1ccc(-c2nnn(CC(=O)N3CCN(C(=O)c4ccco4)CC3)n2)cc1)c1ccccc1F,"inconclusive: 8.91 µM [inhibitor, partial curve]",–
Cc1cc(C(=O)COC(=O)c2ccc(N)c([N+](=O)[O-])c2)c(C)n1-c1ccc2c(c1)OCO2,inactive,–
S=c1[nH]nc(COc2ccc3ccccc3c2)o1,inactive,–
CCCCOCCCNC1=NCCCCC1,inactive,–
Cc1cccc(OCC(=O)Nc2nnc(S(=O)(=O)N3CCCCCC3)s2)c1,"inconclusive: 11.2 µM [inhibitor, partial curve]",–
CCCCn1c(SCC(=O)c2ccc(OC)cc2OC)nc2cc(S(N)(=O)=O)ccc21,"inconclusive: 31.6 µM [inhibitor, partial curve]",–
CC(C)(C)N1C(=O)[C@H]2[C@H]3[C@H](O)[C@H](O)C/C(=N/OC[C@@H](O)COCc4ccco4)[C@H]3CC[C@@H]2C1=O,–,inactive: -1.47% [at 15.3 µM]

SMILES,Potency,"activity change, negative = displacement"
CCOC(=O)/C=C1\SCC(=O)N1CC(=O)Nc1ccc(C(C)C)cc1,"inconclusive: 50.1 µM [inhibitor, single point]",–
C/C(=N/NC(=O)CNC(=O)c1cccnc1)c1cccc([N+](=O)[O-])c1,"inconclusive: 28.2 µM [inhibitor, partial curve]",–
C=CCn1c(SCc2csc(-c3ccc(C)cc3)n2)nnc1-c1ccccc1OC,"inconclusive: 50.1 µM [inhibitor, single point]",–
Cc1cc(Cl)ccc1N(CC(=O)N=Nc1c(O)[nH]c2ccccc12)S(C)(=O)=O,"inconclusive: 31.6 µM [inhibitor, partial curve]",–
Cc1noc(-c2ccc(N3CCCCC3C)c([N+](=O)[O-])c2)n1 (centres undefined),"inconclusive: 22.4 µM [inhibitor, partial curve]",–
Cc1ccc(-c2csc(NC(=O)c3ccccc3F)c2C(=O)O)cc1,inactive,–
COC(=O)Cn1c(=O)c2c(nc3n2CCN3c2cccc(C)c2)n(C)c1=O,"inconclusive: 20 µM [inhibitor, partial curve]",–
NS(=O)(=O)c1cccc(NC(=O)CCCC2CCCCC2)c1,"inconclusive: 35.5 µM [inhibitor, single point]",–
Cc1ccc(-c2nc(NC(=O)c3nn(C)cc3[N+](=O)[O-])sc2C)cc1C,"inconclusive: 39.8 µM [inhibitor, partial curve]",–
O=C(CN1C(=O)CSC1=O)c1ccccc1,"inconclusive: 31.6 µM [inhibitor, single point]",–
CCOc1ccc(NS(=O)(=O)c2ccc3[nH]cc(C(=O)NCc4ccco4)c(=O)c3c2)cc1,"inconclusive: 15.8 µM [inhibitor, partial curve]",–
COc1cc(NC(=O)c2csc(-c3ccncc3)n2)cc(C(=O)Nc2cccc(C(F)(F)F)c2)c1,"inconclusive: 44.7 µM [inhibitor, single point]",–
CC(C)Cc1nnc(NC(=O)CSc2ccccn2)s1,"inconclusive: 25.1 µM [inhibitor, partial curve]",–
C=CCc1cccc2cc(C(=O)NCc3cccnc3)c(=O)oc12,inactive,–
O=S(=O)(c1cccc(Br)c1)N1CCN(c2ccnc3cc(Cl)ccc23)CC1,inactive,–
Cc1ccc2nc(SCC(=O)c3cc(C)n(C)c3C)[nH]c2c1,"inconclusive: 50.1 µM [inhibitor, single point]",–
Cc1cc(=O)[nH]c(SCC(=O)c2ccc(C(C)C)cc2)n1,"inconclusive: 25.1 µM [inhibitor, partial curve]",–
Cc1ccc(S(=O)(=O)N2CCOCC2)cc1NC(=O)COC(=O)CNC(=O)c1ccc(Cl)cc1Cl,"inconclusive: 35.5 µM [inhibitor, single point]",–
CCc1nnc(NS(=O)(=O)c2ccc(Nc3ccc([N+](=O)[O-])c4nonc34)cc2)s1,"inconclusive: 28.2 µM [inhibitor, partial curve]",–
O=c1c2ccccc2cnn1Cc1cccc(Br)c1,"inconclusive: 17.8 µM [inhibitor, partial curve]",–
